# In the supplement of paper PMC11417369:
# ± gives the standard deviation of the averaged measurements. This is one part of the list.
# System: PfAP2-LT AP2 domain (GST-tagged)
# Assay: gcPBM binding intensity (ln(normalized median fluorescence intensity)); higher = stronger DNA binding
# How it was run: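 GST-tagged P. falciparum DNA-binding domains produced in E. coli were incubated for 1 h on an Agilent 4 × 180k array of primer-extended double-stranded 36-bp intergenic genomic probes with negative controls. Binding intensity is the highest Masliner-normalised natural-log median intensity across replicate spots of either probe orientation, with bound protein detected by Alexa488 anti-GST antibody at 488 nm.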
row,Sequence,gcPBM binding intensity (ln)
1,TCTTACTAATATCGCACACACATATGTAGACGGGAT [CACACA_site87],9.43 ± 0.41
2,TATTTATATGGACACACACACATATAAATAAATAAA [CACACA_site6346],9.47 ± 0.29
3,TATTGACAAAATAGCTGTACAAATTAAAAGAAATAA [XGTACX_site4415],8.7 ± 0.53
4,CGATATGTTCAATATTGTACTATTTATAATAATATG [XGTACX_site3051],8.58 ± 0.45
5,ATGGCCATAATATAGACACACATATATAAATATATA [CACACA_site2230],9 ± 0.44
6,CTTAAAAAAAAAAAATGTACACATAAAAAAAATACA [XGTACX_site6700],8.64 ± 0.56
7,TTATTGTCTTCTCATATACACACTTTTATGACTATC [CACACA_site3142],9.2 ± 0.42
8,TTTAATTGATAATGAAGACAATTATATGCATCCAAA [TGCATGCA_negctrl_site138],8.45 ± 0.38
9,ATTAATATATATGGATGTACTTATGTATGTATGCAT [XGTACX_site2263],8.98 ± 0.28
10,ATAATAATATATATTACACACGCATCGTTCATTTAT [CACACA_site8752],9.28 ± 0.26
11,GGAAAAACCATTCGCACACACACATAATATATAATA [CACACA_site1424],9.71 ± 0.31
12,CATGTATAATATAATACACACTATATAATATACACC [CACACA_site5267],9.18 ± 0.36
13,TTATTTGAACAATATGCACACATTTTATTTATTTTA [CACACA_site3420],8.93 ± 0.47
14,TTAATGTTGTATGGTTGTACAATAAGCCCCTTTTAA [XGTACX_site2484],8.55 ± 0.38
15,TATATATATATGTGCACACATAATAAAAAAAAAAAT [CACACA_site3831],9.76 ± 0.24
16,TTTTATTTTATTCTTAAATAAGTATTATAAAATATG [XGTACX_negctrl_site201],8.31 ± 0.42
17,TATAAAGCATATTAAAGTACTTATTTTCCTTTTTCT [XGTACX_site8892],8.49 ± 0.67
18,TACCCTGATCGGCATGCATGTAAGTAACAAATATAT [TGCATGCA_site153],8.93 ± 0.46
19,ATTCAAACAAATTAATGTACATATATATAAGATATT [XGTACX_site1531],8.82 ± 0.37

row,Sequence,gcPBM binding intensity (ln)
1,ATTTAGAAATATATTTGTACATATATATATATATAT [XGTACX_site7129],9.34 ± 0.11
2,CTACATATTAATATATGTACATATTAATATATCTAA [XGTACX_site7118],8.61 ± 0.4
3,ATATATACATATAAATGTACATAATTATTATGCACA [XGTACX_site1261],8.76 ± 0.37
4,ATAAAAAGAAAAAAGGGTACACTATACTATTTAAAA [XGTACX_site4467],8.64 ± 0.54
5,TGTTGATAAAAAATAAAAAATAAAAAAATAAAATAT [TGCATGCA_negctrl_site559],8.54 ± 0.47
6,TATGATGATATAAAAACACACACATATAATATAATA [CACACA_site8321],9.38 ± 0.23
7,TTAAAGCTTACATATACACACATACATAAATTCATA [CACACA_site8785],8.94 ± 0.37
8,TTTTGATCATCCAAAATATCTTCATCTGAACTACTA [CACACA_negctrl_site939],8.57 ± 0.52
9,GACATATTCCCCCCCACACACACACCCACATACATA [CACACA_site2302],11.1 ± 0.18
10,GTAAAATAAAATATATGTACATATGTATATGAGGTA [XGTACX_site3743],9.07 ± 0.44
11,TTTTTATATAACCTTCTTAATTCTTTTTTTTTTTTT [XGTACX_negctrl_site591],8.3 ± 0.61
12,AAAACAAAATTATGAACATGCAAGGTAAAATTGTAA [TGCATGCA_site775],9.02 ± 0.51
13,AATATAATATAATGCACACATAAAAAAAAAATCAAA [CACACA_site122],9.13 ± 0.53
14,TTTTATGTTTCAAAATGTACATTAAAATATACCATA [XGTACX_site1713],8.35 ± 0.41
15,TTATTTATAAATATTAATTTTTTTTTTTTTTTTTTT [XGTACX_negctrl_site105],8.01 ± 0.5
16,AAAATATATATATATATATATATATGTATACTCCTA [XGTACX_negctrl_site312],9.24 ± 0.4
17,CATATGCATACTATACGTACATATGTATATAATATA [XGTACX_site7738],8.84 ± 0.42
18,TTAATTAAAACGAATACACACATAAATATATAAAAG [CACACA_site1254],8.96 ± 0.42
19,ATATATATATTTTTTAAACACACACCGAAATATTTG [CACACA_site8937],9.05 ± 0.3

row,Sequence,gcPBM binding intensity (ln)
1,TTTTATTATTGAATACTAGTATATATAATATGAAGA [CACACA_negctrl_site910],8.36 ± 0.42
2,GTACAAATGTTGTGTATATATACACACATACATATA [XGTACX_negctrl_site276],9.11 ± 0.26
3,AACTTACTTGGACATACACACATATAGATTTATATA [CACACA_site7412],9.02 ± 0.37
4,ATGTAGTTTTATCAGTGTACAAGTATTTTATCACAT [XGTACX_site8958],8.96 ± 0.49
5,ATAAGAATCATATTTAAACACACATACATATATATA [CACACA_site9106],8.93 ± 0.41
6,TTTTTATTGGTGAATACACACGTATATATATATTAT [CACACA_site8756],9.03 ± 0.4
7,ATTAAATAAACCATTACACACTTTTATGTTTTGAAA [CACACA_site1143],8.7 ± 0.4
8,ATTATATTAACAATGACATGCAATTCTTAATCCTTA [TGCATGCA_site648],8.54 ± 0.4
9,AAAAAAAAAAAATACACACACATAAAAAAAAAAATA [CACACA_site1858],9.38 ± 0.45
10,AAAAAAAAATTGTGTACACATAATTATATCATATGT [CACACA_site4500],8.81 ± 0.42
11,ATGGATAATAAGTTTACACACAAAAAAAAAGAAAAA [CACACA_site861],9.02 ± 0.57
12,AAATAAAATAAATAATATAAAATAATATATAAAAAA [CACACA_negctrl_site1777],8.65 ± 0.63
13,TTTTGTTAAAAAGATGTATATTTTATAAATATTTAT [CACACA_negctrl_site101],8.22 ± 0.54
14,CACAAACAAAAACACACACACACACCGACAAAAATG [CACACA_site5362],10.24 ± 0.092
15,TATAAATATTTATACACACACACATTAATACCTATA [CACACA_site7604],9.71 ± 0.19
16,AAAAGAAGATAATACAGTACAGAATAATATAAAATA [XGTACX_site5962],8.93 ± 0.52
17,AGAAAGAAGATATATACACACAAAAAAAGATATATA [CACACA_site6779],9.17 ± 0.49
18,TTCTTTCTAGAATATTGTACATATATTGTTATTATA [XGTACX_site8425],8.75 ± 0.41
